The campaign covered roughly 350,000 compounds. About 260 (0.074%) were called active. This list was built around the results that the source calls inconclusive (neither active nor inactive); the mix of calls is not that of the screen. The call rests on the fitted dose curve; in most records, active means well fitted inhibition curve with a large enough effect; inconclusive means small, poorly fitted or top-dose-only effect; inactive means no such curve, though single readings can be large or run the other way. Potencies of inconclusive entries are doubtful fits and often do not repeat.
molecular target: Ferritin light chain (Equus caballus) (UniProt P02791); assay: qHTS Assay for Identification of Novel General Anesthetics; details: apoferritin/1-aminoanthracene competitive binding, fluorescence; series mostly up to 77.5 µM; further: nearly all actives have a fitted effect of over 20% in size
Sequence of UniProt P02791 (P02791 whole entry, looked up): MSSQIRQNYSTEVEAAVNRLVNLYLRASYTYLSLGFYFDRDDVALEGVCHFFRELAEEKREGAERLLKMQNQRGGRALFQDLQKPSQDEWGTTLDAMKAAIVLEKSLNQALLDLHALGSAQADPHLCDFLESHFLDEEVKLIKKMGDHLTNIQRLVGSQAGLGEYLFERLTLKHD
How it was run: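 Read-out: endpoint 1-AMA fluorescence, excitation 380 nm and emission 535 nm, after compounds sit 10 min at room temperature with 10 uM horse-spleen apoferritin in 50% saturated 1-AMA/PBS. Values come from four-parameter Hill fits.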
Potency means the concentration at half of the fitted maximal effect; tags describe the fitted curve by direction and shape.

Potency, inconclusive:
O=C(NCc1ccc(N2CCCC2=O)cc1)c1cc(COc2c(F)cccc2F)on1 14.1 µM [inhibitor, partial curve], CN(C)/C=C/C(=O)c1cnc(-c2cccc(Cl)c2)s1 50.1 µM [inhibitor, single point], CC(=O)c1ccccc1OCc1ccc(S(=O)(=O)Cc2ccccc2)cc1 31.6 µM [inhibitor, partial curve], CCCCn1c(SCC(=O)c2ccc(OCC)cc2)nc2cc(S(N)(=O)=O)ccc21 35.5 µM [inhibitor, partial curve], Cc1ccc(S(=O)(=O)Nc2cc(C)c(O)cc2C)cc1 39.8 µM [inhibitor, partial curve, poor fit], COc1ccc2c(c1)C1(C)CC(C)(C)N2C(=O)N1c1ccccc1 (stereo not given) 20 µM [inhibitor, partial curve], CC(C)C[C@H](N)c1nnc(SCc2ccc(Cl)cc2Cl)o1 35.5 µM [inhibitor, partial curve], Cc1cccc(C(=O)Nc2ccc(C(=O)N3CCCCC3C)cc2)c1 (stereo not given) 25.1 µM [inhibitor, partial curve], Cc1ccc(OCC(=O)N/N=C/c2cccc3cccnc23)cc1 12.6 µM [inhibitor, partial curve], CC1CN(c2ccc([N+](=O)[O-])c(NCCOc3ccccc3)c2)CC(C)N1 (stereo not given) 25.1 µM [inhibitor, partial curve], Cc1ccc(CNc2ccc3c(c2)nc(C)n3C)cc1 31.6 µM [inhibitor, partial curve], COc1cccc(NC(=O)C2COc3ccccc3O2)c1 (stereo not given) 15.8 µM [inhibitor, partial curve], Cc1c(C(=O)OCC(=O)N(C)c2ccccc2)oc2ccccc12 25.1 µM [inhibitor, partial curve], O=C(NC1CCCC1)c1ccc(CSCc2ccccc2F)o1 39.8 µM [inhibitor, single point], Cc1cccc(N2CC(C(=O)Nc3nnc(SCCC4OCCO4)s3)CC2=O)c1 (stereo not given) 39.8 µM [inhibitor, single point], Cc1ccsc1C(=O)Nc1ccc2c(c1)OCCO2 56.2 µM [inhibitor, single point], CCOC(=O)C1(Cc2ccccc2Cl)CCN(Cc2csc(C(C)=O)c2)CC1 28.2 µM [inhibitor, partial curve], NC(=O)c1ccc(Nc2ccc([N+](=O)[O-])cc2[N+](=O)[O-])cc1 35.5 µM [inhibitor, single point], Cc1cc(NC(=O)OC2CCCCC2)ccc1[N+](=O)[O-] 28.2 µM [inhibitor, partial curve], CC(C)C[C@H](NC(=O)c1[nH]cnc1C(=O)Nc1ccccc1)C(=O)OC(C)(C)C 8.91 µM [inhibitor, full curve], COc1cc(C2C(C(=O)/C=C/c3ccccc3)=C(O)C(=O)N2c2ccccn2)ccc1O (stereo not given) 28.2 µM [inhibitor, partial curve], CCOc1ccccc1NC(=O)Cn1c(=O)n(CC(=O)NCc2ccccc2Cl)c(=O)c2sccc21 3.16 µM [inhibitor, partial curve], O=C(Nc1ccccc1)c1cnc(-c2ccccc2)nc1-c1ccccc1 11.2 µM [inhibitor, partial curve], O=C(Nc1ccc(NC(=O)C2CCCCC2)nc1)c1ccco1 39.8 µM [inhibitor, partial curve], CCN(CC)C(=O)c1cc2cc([N+](=O)[O-])ccc2s1 35.5 µM [inhibitor, partial curve], CCc1ccc(NC(=O)CNC(=O)c2cn(-c3ccccc3OC)c(=O)c3ccccc23)cc1 1.78 µM [inhibitor, partial curve], Cc1nn(CCO)c2nc(-c3cccs3)cc(C(F)(F)F)c12 50.1 µM [inhibitor, single point], COc1ccc(-c2ccc(C3C(C#N)=C(N)Oc4n[nH]c(C)c43)o2)cc1 (stereo not given) 25.1 µM [inhibitor, partial curve], Cc1ccc(N2C(=O)CS/C2=C(\C(Cl)=C(Cl)Cl)[N+](=O)[O-])cc1 39.8 µM [inhibitor, partial curve], COc1cc(/C=N/N=C(/N)c2nonc2N)cc(Br)c1OCc1cccc(C)c1 17.8 µM [inhibitor, partial curve], Cc1onc(-c2c(F)cccc2Cl)c1-c1nnc(-c2ccc(C(F)(F)F)cc2)o1 8.91 µM [inhibitor, full curve, poor fit]

Potency, inactive:
O=C(/C=C\c1ccco1)NC(=S)Nc1ccccc1O, COc1ccc2[nH]c(=O)c(CN(C(=O)C3CCCO3)c3ccc(C)cc3)cc2c1 (stereo not given), O=C(Nc1ccccc1O)N1c2ccccc2Sc2ccccc21, Cc1ccc(-c2cc(C(=O)NCc3ccccn3)no2)cc1, Cc1cccc(C)c1NC(=S)NC(=O)c1ccc(Br)o1, CCOc1ccccc1NC(=O)c1nc(S(=O)(=O)Cc2cccc(C)c2)ncc1Cl, Cc1ccccc1NS(=O)(=O)c1cc(C(=O)N2CCCC2)ccc1Cl, COc1cc(/C=N/NC(=O)/C(=C/c2ccccc2)CCO)ccc1O, CCCn1c2ccccc2c2cnn(CC(=O)NCC3CCN(Cc4ccc(C)cc4)CC3)c(=O)c21, CN1CCN(C(CNC(=O)C(=O)Nc2ccc(Cl)cc2)c2cccnc2)CC1 (stereo not given), CC(C)(C)c1ccc(C(=O)Nc2ccc(Cl)cc2)cc1, O=C(c1cnccn1)N1CCCC(N2CCN(c3cccc(Cl)c3)CC2)C1 (stereo not given), O=C(Nc1ncccc1O)c1c(O)c2ccccc2[nH]c1=O, Cc1cc(C)n(-c2cc(N3CCOCC3)ncn2)n1

— PubChem BioAssay AID485281 (National Center for Advancing Translational Sciences (NCATS), 2010)
